Common to all, as to assay type: toxicity, cell-based
One data set concerns Fibroblast. Briefly: Multiplex assay against human fibroblast. The conditions noted are these: for Population Fragmented Nuclei (%): 12 h. The procedure, abridged: (§1)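 Hoechst33342, BioTracker Green Microtubule Cytoskeleton Dye, MitoTracker Red and Annexin V Alexa Fluor 680 were added to live cells at seeding, and imaging on a CQ1 microscope at 37°C and 5% CO2 followed compound addition. Gating by CellPathfinder machine learning separated cells into Hoechst high-intensity objects or normal cells, then normal cells into healthy, pyknosed or fragmented nuclei, then pyknosed cells into mitotic or apoptotic. Per cents of healthy-nucleus cells are reported for the tubulin, mitochondrial-mass and membrane-permeability phenotypes.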

For a further data set, the system named is HEK-293T. The data set can be described thus: Multiplex assay against HEK293T. To be noted: human. The procedure, abridged:
as §1

Another data set has as its system U2OS. The data set can be described thus: Multiplex assay against U2OS. To be noted: human. An outline of the steps: as §1
Setting [1] is: 12 h, 1 µM, compound concentration 1 uM.
The mark [2] stands for this setting: 24 h, 1 µM, compound concentration 1 uM.
Setting [3] is: 48 h, 1 µM, compound concentration 1 uM.
The mark [4] stands for this setting: 48 h, 10 µM, compound concentration 10 uM.
Where [5] appears, read: 12 h, 10 µM, compound concentration 10 uM.
[6] abbreviates: 24 h, 10 µM, compound concentration 10 uM.

Data on three compounds can be found in ChEMBL document CHEMBL5724801, “EUbOPEN Chemogenomics Library - Multiplex” (2024).

Molecules are shown by their SMILES. A number of entries come with more than one value. They are shown here; other results are not. There may be further records. The records of an entry repeat one measurement (runs, samples, wells, individuals or studies).

Take `O=C1N=C(NCc2cccs2)S/C1=C\c1ccc2ncccc2c1`: the “Population Fragmented Nuclei (%)” value in the data set on Fibroblast (1 µM, compound concentration 1 uM) was 13.04% and 2.96%; in the data set on Fibroblast (10 µM, compound concentration 10 uM) it was 20.38% and 6.63%. Also, the “Population Healthy Nuclei (%)” value in the data set on HEK-293T (setting [1]) is 55.63% and 16.06%. Further, the “Population Tubulin-Different-Phenotype (%)” value with HEK-293T (setting [1]) was 6.36% and 31.82%; in the data set with HEK-293T (setting [3]) it was 2.51% and 34.78%; in the data set with HEK-293T (setting [4]) it was 15.69% and 78.16%; in the data set with U2OS (setting [4]), 13.41% and 2.2%. In addition, the “Total Cell Count” value is 425 and 139 in the data set with HEK-293T (setting [2]); 778 and 200 with HEK-293T (setting [3]). Besides, the “Population Pyknosed Nuclei (%)” value with HEK-293T (setting [4]) was 6.91% and 37.91%. The “Population Mitochondria Different-Phenotype (%)” value in the data set with U2OS (setting [1]) is 0.51% and 14.47%; in the data set on U2OS (setting [5]) it was 0.36% and 48.82%; with U2OS (setting [6]), 2.64% and 44.04%; with U2OS (setting [4]) it was 1.68% and 38.46%.
In the case of `O=C1NCc2ccc3c(-c4cccc(Cl)c4)c[nH]c3c21`, the “Population Mitochondria Different-Phenotype (%)” value in the data set with Fibroblast (setting [3]) was 13.49% and 3.09%; in the data set on HEK-293T (setting [5]), 46.55% and 0%; in the data set with HEK-293T (setting [2]) it was 27.22% and 6.67%; in the data set with HEK-293T (setting [3]), 65.38% and 18.99%; with U2OS (setting [3]) it was 1.09% and 17.95%; with U2OS (setting [4]), 0.79% and 11.86%. Further, the “Population Healthy Nuclei (%)” value is 43.88% and 14.48% with HEK-293T (setting [1]); 40.09% and 10.24% with HEK-293T (setting [4]). The “Population Tubulin-Different-Phenotype (%)” value was 6.56% and 38.1% with HEK-293T (setting [1]); 2.1% and 20.25% with HEK-293T (setting [3]); 4.49% and 15.38% in the data set on HEK-293T (setting [4]).
Take `CC(C)Oc1ccc(F)c(-c2cnc(N)c(C(=O)Nc3cnccc3N3CCC[C@@H](C(=O)O)C3)n2)c1`: in the data set with Fibroblast (setting [2]), the “Population Apoptotic (%)” value was 6.45% and 28.57%. In addition, the “Population Healthy Nuclei (%)” value was 58.1% and 16.34% with HEK-293T (setting [1]); 49.25% and 14.29% in the data set on HEK-293T (setting [5]); 79.57% and 26.14% with HEK-293T (setting [2]). For the same compound, the “Population Tubulin-Different-Phenotype (%)” value with HEK-293T (setting [1]) is 7.69% and 28%; in the data set with HEK-293T (setting [6]), 67.08% and 21.15%; in the data set on HEK-293T (setting [3]), 6.85% and 43.3%. In addition, the “Population Pyknosed Nuclei (%)” value with HEK-293T (setting [2]) was 19.65% and 64.71%. Further, the “Total Cell Count” value is 509 and 153 in the data set on HEK-293T (setting [2]); 912 and 188 in the data set with HEK-293T (setting [3]). For the same compound, the “Population Mitochondria Different-Phenotype (%)” value is 0.86% and 19.71% with U2OS (setting [5]); 0.27% and 20.71% in the data set on U2OS (setting [6]); 1.1% and 15.11% in the data set with U2OS (setting [4]). Further, the “Population Membrane Permeable-Phenotype (%)” value in the data set with U2OS (setting [6]) is 2.41% and 17.14%.
